# Assay results published in the antibiotic and cytotoxicity screens of Wong et al. (2023).
# The other results are listed elsewhere or left out.
# System: S. aureus RN4220
# Test: growth inhibition call (relative growth <= 0.2)
# Conditions: 50 µM
row,Structure (SMILES),growth inhibition call
1,CC1(C)S[C@@H]2[C@H](NC(=O)C3(N)CCCCC3)C(=O)N2[C@H]1C(=O)O,active
2,C[C@@H]1CN([C@@H](C)CO)C(=O)c2cc(NC(=O)Nc3ccc(C(F)(F)F)cc3)ccc2O[C@@H](C)CCCCO[C@@H]1CN(C)C(=O)NC1CCCCC1,inactive
3,C[C@@H]1CCCCO[C@H](CN(C)S(=O)(=O)c2ccccc2)[C@@H](C)CN([C@H](C)CO)C(=O)c2cc(NC(=O)Nc3ccc(F)cc3)ccc2O1,inactive
4,C[C@@H]1CN([C@H](C)CO)S(=O)(=O)c2ccc(-c3cccnc3)cc2O[C@@H]1CN(C)C(=O)NC1CCCC1,inactive
5,C[C@H](CO)N1C[C@H](C)[C@H](CN(C)C(=O)Nc2ccc(F)cc2)Oc2ccc(NC(=O)CCCCCC(=O)Nc3ccccc3N)cc2C1=O,inactive
6,C[C@H](CO)N1C[C@H](C)[C@H](CN(C)S(C)(=O)=O)Oc2ccc(NC(=O)CCCCCC(=O)Nc3ccccc3N)cc2C1=O,inactive
7,C[C@H]1CN([C@@H](C)CO)C(=O)c2cccc(NS(=O)(=O)c3cccs3)c2O[C@H]1CN(C)S(=O)(=O)c1cccs1,inactive
8,COc1ccc(CN(C)C[C@@H]2Oc3c(NC(=O)c4ccc(-c5nccs5)cc4)cccc3C(=O)N([C@H](C)CO)C[C@@H]2C)cc1,inactive
9,O=C(O)CSCC(=O)N1CCCCC1,inactive
10,C[C@@H]1CN([C@@H](C)CO)S(=O)(=O)c2ccc(C#C[C@@H](C)O)cc2O[C@@H]1CN(C)C(=O)C1CCCCC1,inactive
11,O=C(NC[C@@H](O)CO)[C@]1(Cc2ccccc2)N=C(c2ccc(OCCCO)cc2)O[C@@H]1c1ccccc1,inactive
12,C[C@@H]1CCCCO[C@H](CN(C)S(=O)(=O)c2ccccc2)[C@H](C)CN([C@H](C)CO)C(=O)c2cc(NC(=O)Nc3ccccc3)ccc2O1,inactive
13,Cc1noc(C)c1NC(=O)Nc1ccc2c(c1)C(=O)N([C@@H](C)CO)C[C@@H](C)[C@H](CN(C)CC1CCCCC1)OCCCC[C@H](C)O2,inactive
14,C[C@H]1CN([C@@H](C)CO)C(=O)c2c(c3ccccc3n2C)-c2ccccc2CO[C@H]1CN(C)C(=O)CCC(F)(F)F,inactive
15,C[C@H]1CN([C@@H](C)CO)C(=O)Cc2cc(NC(=O)Nc3ccc(F)cc3)ccc2O[C@H]1CN(C)Cc1ccc(Cl)c(Cl)c1,inactive
16,Cc1noc(C)c1S(=O)(=O)N(C)C[C@H]1OCCCC[C@@H](C)Oc2ccc(NC(=O)Nc3cccc4ccccc34)cc2C(=O)N([C@@H](C)CO)C[C@H]1C,inactive
17,COc1ccc(S(=O)(=O)Nc2ccc3c(c2)C(=O)N([C@@H](C)CO)C[C@@H](C)[C@@H](CN(C)C(=O)CCC(F)(F)F)OCCCC[C@@H](C)O3)cc1,inactive
18,C[C@@H]1CN([C@@H](C)CO)C(=O)c2cccc(NC(=O)c3cnccn3)c2O[C@H]1CN(C)S(=O)(=O)c1ccccc1,inactive
19,C[C@@H]1CCCCO[C@H](CN(C)CC2CC2)[C@@H](C)CN([C@H](C)CO)C(=O)c2cc(NC(=O)Nc3ccccc3)ccc2O1,inactive
20,C[C@H]1CN([C@@H](C)CO)C(=O)c2cc(NS(=O)(=O)c3ccc(Cl)cc3)ccc2O[C@@H]1CN(C)C(=O)Nc1cccc2ccccc12,inactive

row,Structure (SMILES),growth inhibition call
1,Cc1noc(C)c1NC(=O)Nc1ccc2c(c1)CC(=O)N([C@@H](C)CO)C[C@H](C)[C@@H](CN(C)Cc1ccc(C(F)(F)F)cc1)O2,inactive
2,C[C@@H]1CCCCO[C@@H](CN(C)C(=O)C2CCCCC2)[C@@H](C)CN([C@@H](C)CO)C(=O)c2cc(NC(=O)Nc3cccc4ccccc34)ccc2O1,inactive
3,C[n+]1c2cc(N)ccc2cc2ccc(N)cc21.[Cl-],inactive
4,CC(O)C(=O)O.CCOc1ccc2nc3cc(N)ccc3c(N)c2c1,inactive
5,C[C@H](CO)N1C[C@H](C)[C@@H](CN(C)S(=O)(=O)c2ccc(Cl)cc2)Oc2ccc(NC(=O)CCCN(C)C)cc2C1=O,inactive
6,CSc1cnc2c(=O)[nH]c(=O)n(C)c2n1,inactive
7,C[C@@H]1CN([C@@H](C)CO)C(=O)c2cc(NC(=O)Nc3ccc(C(F)(F)F)cc3)ccc2O[C@@H]1CN(C)Cc1ccc(Oc2ccccc2)cc1,inactive
8,O=C(Cn1ccc([N+](=O)[O-])n1)Nc1cccnc1,inactive
9,COc1ccc(NC(=O)N(C)C[C@H]2Oc3ccc(NS(C)(=O)=O)cc3C(=O)N([C@@H](C)CO)C[C@@H]2C)cc1,inactive
10,O=C(Nc1cc(C(F)(F)F)cc(C(F)(F)F)c1)Nc1cnn(-c2ccc([N+](=O)[O-])cc2)c1C(F)(F)F,inactive
11,COc1ccc2c3c([nH]c2c1)[C@H](CO)N(C[C@]13CCN(CC1)Cc1ccccc1OC)C(=O)Nc1ccc(cc1)F,inactive
12,Cc1noc(C)c1NC(=O)N[C@@H]1C=C[C@@H](CC(=O)NCCCN(C)C)O[C@@H]1CO,inactive
13,Cc1ccc(S(=O)(=O)N(C)C[C@@H]2OCCCC[C@H](C)Oc3ccc(NS(C)(=O)=O)cc3C(=O)N([C@@H](C)CO)C[C@H]2C)cc1,inactive
14,O=C1CC[C@@H](C(=O)N2CSC[C@H]2C(=O)O)N1,inactive
15,c1ccn(CCN2CCNCC2)c1,inactive
16,O=C(C[C@H]1C=C[C@H](NC(=O)CN2CCOCC2)[C@@H](CO)O1)NCCc1ccncc1,inactive
17,C[C@@H]1CN([C@@H](C)CO)C(=O)c2cc(NS(=O)(=O)c3cccs3)ccc2O[C@@H]1CN(C)S(C)(=O)=O,inactive
18,C[C@@H]1CCCCO[C@@H](CN(C)S(=O)(=O)c2cccs2)[C@@H](C)CN([C@H](C)CO)C(=O)c2cc(NC(=O)Cc3ccccc3)ccc2O1,inactive
19,COc1ccc(NC(=O)N(C)C[C@H]2OCCCC[C@@H](C)Oc3ccc(NS(=O)(=O)c4ccc(Cl)cc4)cc3C(=O)N([C@@H](C)CO)C[C@@H]2C)cc1,inactive
20,CCCN(C)C[C@@H]1OCCCC[C@@H](C)Oc2ccc(NS(C)(=O)=O)cc2C(=O)N([C@H](C)CO)C[C@H]1C,inactive
